# In the supplement of paper PMC12217912:
# The other results are listed elsewhere or left out. Sequences were assembled here from the parent chain. Values near 0.05 are background.
# B1: TEV protease; numbered along this chain (parent)
# chain: MGESLFKGPRDYNPISSSICHLTNESDGHTTSLYGIGFGPFIITNKHLFRRNNGTLVVQSLHGVFKVKDTTTLQQHLVDGRDMIIIRMPKDFPPFPQKLKFREPQREERICLVTTNFQTKSMSSMVSDTSCTFPSGDGIFWKHWIQTKDGQCGSPLVSTRDGFIVGIHSASNFTNTNNYFTSVPKNFMELLTNQEAQQWVSGWRLNADSVLWGGHKVFMVKPEEPFQPVKEATQL
# Variants of: B1
# Assay: raw area under fraction-flipped curve 0-4 h after induction (AUC4h, not background-subtracted), DNA-recorder readout of cleavage of the substrate (dimensionless); higher = more cleavage of the substrate by the protease variant
# Details: temperature: 34 °C; time window: 0-4 h after rhamnose induction
# Experimental: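 In vivo DNA recorder in E. coli TOP10(DE3) ΔrhaA at 34 °C. Each TEVp single-site mutant (parent TEVp 0) is paired with a single-site variant of the 7-mer TEVs (canonical ENLYFQ|S). The substrate sits between flexible linkers in a Bxb1-sfGFP-TEVs-SsrA fusion, so cleavage stabilises Bxb1 and speeds flipping of a recombination array, read by NGS. The value is the raw area under the fraction-flipped curve over 0-4 h after rhamnose induction (AUC4h), with ≥20 reads per time point. It is not background-subtracted; inactive controls average about 0.047.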
# 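Note: Bxb1 expression induced with 0.2% (w/v) L-rhamnose at OD600 near 0.5, cultures sampled hourly, flipped fraction per protease–substrate barcode pair counted by paired-end Illumina sequencing.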
Variant,area with substrate ENLYDQS,area with substrate ENLYEQS,area with substrate ENLYHQS,area with substrate ENLYKQS,area with substrate ENLYLQS,area with substrate ENLYMQS,area with substrate ENLYRQS,area with substrate ENLYGQS,area with substrate ENLYIQS,area with substrate ENLYNQS
S158L,0.0417,0.048,0.0535,0.0511,0.058,0.0511,0.0557,,,
N116W,0.0815,0.0775,,0.06,,,0.0768,0.0661,0.116,0.0701
N172H,0.0337,,,0.0585,,,,,,0.0706
N172V,0.0678,0.0464,0.0536,,,,0.0608,0.0465,,0.0519
F65P,0.0486,0.0547,0.0483,0.0454,0.0426,0.051,,,0.0545,
F65Q,0.0679,,,0.0596,,,,0.0562,,0.0623
F65V,0.0471,,,,,,0.0678,,,0.0799
M88L,0.0584,0.0695,,0.0493,,0.0908,,,0.106,
H76G,0.0462,,,,,0.1,0.0611,,0.136,
H76T,0.0591,0.0683,0.0702,,,,0.0617,,0.0658,0.044
P155G,0.0543,0.0442,0.0584,,,0.0546,0.0363,0.0474,,
I84V,0.0596,0.0577,0.0478,0.0724,,,0.0549,,0.102,0.0613
I84N,0.0653,0.0625,0.0606,0.0425,,,,,,
N178Y,0.0661,,0.0699,,0.168,0.163,0.0749,,,0.0905
S169Y,0.0865,0.0388,0.0613,,,,0.0582,,,
R102E,0.0431,0.0557,,0.0475,,,0.0447,,0.0511,
T119A,0.0615,0.0706,,0.0634,0.0945,,0.0899,0.0595,0.099,0.0726
T119C,0.0704,,,,,,,,0.124,0.0587
S154A,0.0659,,0.0693,0.0588,,0.0824,0.0589,0.062,,
K98V,0.05,,0.0692,0.0384,,,,0.0736,0.11,
T70F,0.074,0.0561,,0.0514,,0.0364,0.0648,,,0.0614

# Same assay, conditions: temperature: 34 °C; time window: 0-4 h after rhamnose induction
Variant,area with substrate ENLYPQS,area with substrate ENLYSQS,area with substrate ENLYQQS,area with substrate ENLYWQS,area with substrate ENLYVQS,area with substrate ENLYYQS,area with substrate ENLYTQS
N116W,0.0648,0.0577,,,,,
N172H,,,0.058,0.0586,,,
N172V,,,0.062,,0.0638,0.0588,
F65P,0.0469,,0.0505,0.0392,,0.0362,0.0602
F65Q,0.101,,,,,,0.0739
F65V,0.0735,,,,,,
M88L,0.0767,0.0715,,0.105,,,
H76G,,,,0.0806,,,0.0836
H76T,0.0784,0.0578,,0.0633,,,0.0666
P155G,0.0641,,,0.0408,0.03,,0.0462
I84V,,,,0.0833,0.0951,,
I84N,,0.0575,0.0644,,,,0.0543
N178Y,,0.051,,0.113,0.214,0.0811,0.0916
R102E,0.0626,,,0.064,,,0.104
T119A,0.0793,,0.0643,0.0799,0.123,0.08,
T119C,,,,,,,0.105
S154A,,0.0528,,,,0.063,0.0784
K98V,0.0855,,,,0.143,,
T70F,0.0662,,,,0.0312,,0.0594
